Results published in PubChem BioAssay AID1508642 (National Center for Advancing Translational Sciences (NCATS), 2021).
Screen size: about 43,000 compounds; about 200 (0.47%) were called active. About 12% were inconclusive and are not listed. Calls come from the whole dose curve; as a rule, active = well fitted cell-killing curve with a large enough effect; inconclusive = small, poorly fitted or top-dose-only effect, or effect the other way; inactive = flat fitted curve, though single readings scatter. The list shows a part of the results.

Assay: Cell viability qHTS assay in S16 Pmp22-F2sN cells; note: nearly all actives have a fitted effect of over 65% in size
Details: S16 Pmp22-F2sN Schwann cells viability, CellTiter-Glo, 24 h; series mostly up to 57.5 µM; activity change, negative = cytotoxicity: at the top concentration
Method in brief: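 S16 Pmp22-F2sN Schwann cells (500-1,000/well) in phenol-red-free DMEM with 10% FBS received 23 nL compound by pin tool for 24 h at 37 °C. Viability was then read as CellTiter-Glo luminescence after 15 min at room temperature.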
% is set by controls: 0 for no effect and ±100 for the full control effect.

SMILES | activity change, negative = cytotoxicity
CCOC(=O)c1c(C)n(S(=O)(=O)c2ccc(C)cc2C)c2ccc(NS(=O)(=O)c3ccc(C)cc3C)cc12 | inactive: -0.757%
CC(C)Cn1cc(NC(=O)Nc2cccc(C(F)(F)F)c2)c2ccccc2c1=O | inactive: -17.2%
CC(=O)N1CCc2cc(S(=O)(=O)NC(CC(C)C)C(=O)Nc3ccc(C(C)C)cc3)ccc21 (stereo not given) | inactive: -6.72%
CCOc1ccc(CNC(=O)c2cccc(NC(=O)N3CCSc4ncccc43)c2)cc1 | inactive: -11.9%
CCn1c(C(=O)N2CCC(C(=O)N3CCN(c4cc(C)ccc4C)CC3)CC2)cc2sccc21 | inactive: -10%
CC(=O)N1c2ccc(S(=O)(=O)N3CCCCCC3)cc2CC1C(=O)NC(C)C (stereo not given) | inactive: -13.3%
CCOC(=O)c1c(C)sc(-c2c(-c3ccc4c(c3)OCCO4)[nH]c3c2c(=O)n(C)c(=O)n3C)c1O | inactive: 2.92%
Cc1cc(-c2ccc(C)c(S(=O)(=O)N3CCC(C)CC3)c2)on1 | inactive: -20.9%
CCOC(=O)N1CCc2c(sc3c2c(=O)n(Cc2ccccc2)c(=O)n3Cc2cc(C)ccc2C)C1 | inactive: 6.91%
Cc1sc2ncn(CC(=O)Nc3ccc(F)cc3F)c(=O)c2c1S(=O)(=O)N1CCC(C)CC1 | inactive: -0.0049%
CCOc1ccccc1NC(=O)N1CCC(n2c(C)nc3cccnc32)CC1 | inactive: 3.58%
COc1ccc(NC(=O)c2cc3nc(-c4ccc(Cl)c(Cl)c4)cc(C(F)(F)F)n3n2)c(OC)c1 | inactive: 13.3%
COc1cccc(N2CCN(S(=O)(=O)c3cn(C)c(C)n3)CC2)c1 | inactive: -9.34%
Cc1c(-c2nnc(SCC(=O)Nc3ccccc3F)o2)nnn1-c1ccc(F)cc1 | inactive: -2.11%
COc1ccc(CNC(=O)CCc2cn(C)c3ccccc23)cc1 | inactive: -2.46%
COc1ccc(C(=O)NC2CC(=O)N(c3ccc4c(c3)OCCO4)C2)cc1 (stereo not given) | inactive: 4.41%
CCOC(=O)c1ccc(NC(=O)C2CCCN(c3ccc(Sc4ccc(C)cc4)nn3)C2)cc1 (stereo not given) | inactive: 4.71%
CC(C)c1nc2ccc(C(=O)NCCCN3CCN(c4ccccc4F)CC3)cc2o1 | inactive: -5.7%
COC(=O)c1ccc(-n2nnc(-c3nc(-c4ccc5c(c4)OCO5)no3)c2C)cc1 | inactive: 3.7%
CCN(C(=O)CN(C)S(=O)(=O)c1ccc2c(c1)c(=O)n(C)c(=O)n2C)c1ccc(OC)cc1 | inactive: -7.58%

SMILES | activity change, negative = cytotoxicity
Cc1cc(Br)ccc1NC(=O)CCS(=O)(=O)c1cccc2nsnc12 | inactive: -2.84%
COc1ccccc1CNC(=O)C(CC(C)C)NS(=O)(=O)c1ccc2c(c1)oc(=O)n2C (stereo not given) | inactive: 1.89%
Cn1c(=NC(=O)c2ccc3c(c2)OCCO3)sc2cc(S(C)(=O)=O)ccc21 | inactive: 5.96%
CCC(=O)N1CCc2cc(S(=O)(=O)NCCC(=O)NCc3ccccc3Cl)ccc21 | inactive: -1.36%
Cc1ccccc1-c1noc(C(C)NC(=O)c2ccco2)n1 (stereo not given) | inactive: -15.6%
Cc1ccc(C(C)C)c(OCC(=O)Nc2ccc(S(=O)(=O)Nc3onc(C)c3C)cc2)c1 | inactive: 6.98%
N#Cc1ccc(CN2C(=O)c3ccccc3Sc3ccc(C(=O)OCc4ccco4)cc32)cc1 | inactive: 7.68%
CCOc1ccc2nc(NC(=O)CS(=O)(=O)c3ccc(Cl)cc3)sc2c1 | inactive: -2.54%
Cc1ccc(C2c3c(oc4ccccc4c3=O)C(=O)N2c2ccc(C)cn2)cc1 (stereo not given) | inactive: 8.85%
CCCCN(C)C(=O)C1CCCN(c2ncnc3onc(-c4ccc(F)cc4)c23)C1 (stereo not given) | inactive: -5.61%
Cc1cccc(N2CCN(C(=O)CSCc3ccc(F)cc3)CC2)c1C | inactive: -16.1%
CCN(CC)S(=O)(=O)c1ccc2c(c1)c(=O)c(C(=O)NCc1ccccc1)cn2C | inactive: -0.907%
Cc1ccc(NC(=O)Nc2nnc(N3CCCC3)s2)c(C)c1 | inactive: 1.93%
COc1ccc(-c2cn3nc(N4CCC(C(=O)Nc5cccc(Cl)c5)CC4)sc3n2)cc1 | inactive: 5.25%
Cc1ccc(CNC(=O)Cc2coc3cc(C)cc(C)c23)cc1 | inactive: 4.7%
CC(=O)N1CCCc2cc(S(=O)(=O)N3CCC(C(=O)NCc4ccc(N(C)C)cc4)CC3)ccc21 | inactive: -26.6%
COc1cc(CN(CC2CCCO2)C(=O)c2ccc(F)cc2)cc(OC)c1OC (stereo not given) | inactive: 4.79%
CCOc1cccc(CC(=O)Nc2ccc3nc(N4CCCCC4)cc(C)c3c2)c1OCC | inactive: 10.5%
COc1ccccc1CNC(=O)c1ccc(CS(=O)(=O)c2ccccc2C)o1 | inactive: 11.4%
COc1ccc(CNC(=O)CCC(=O)N2CC3CCCN3c3ccccc32)cc1 (stereo not given) | inactive: -1.91%

SMILES | activity change, negative = cytotoxicity
CN(C)c1ccc(CNC(=O)c2cc3cc(S(=O)(=O)N4CCCCC4)ccc3n2C)cc1 | inactive: -11.1%
O=C(CN1C(=O)C2CCCCN2c2ccc(C(=O)N3CCCC3)cc21)NCc1cccc(Cl)c1 (stereo not given) | inactive: 5.21%
Cc1ccc(-c2c(C(=O)Nc3ccc(F)c(F)c3)oc(=O)c3ccccc23)cc1 | inactive: -0.24%
CCn1cc(C(=O)NCc2ccc(C)cc2)c(=O)c2cc(S(=O)(=O)N3CCC(C)CC3)ccc21 | inactive: 3.53%
CCOc1ccc(CNS(=O)(=O)c2c(C(=O)N3CCCCCC3)c(C)n(C)c2C)cc1OC | inactive: -4.75%
Cc1ccc(Cl)c2sc(NC(=O)CS(=O)(=O)c3ccc(Cl)cc3)nc12 | inactive: -3.9%
Cc1oc(C)c2c(=O)cc(-c3ccc4c(c3)OCO4)cc(OC(=O)c3ccccc3Br)c12 | inactive: 0.158%
COc1ccc(NC(=O)C2CCN(S(=O)(=O)c3ccc4c(c3)CCCC(=O)N4)CC2)cc1Cl | inactive: 25.8%
COc1ccc(NC(=O)c2nnn(Cc3nc(-c4cc(Br)ccc4OC)oc3C)c2C)cc1 | inactive: 0.493%
CCOc1cccc(C2c3c(oc4ccc(F)cc4c3=O)C(=O)N2CCc2ccc(OC)cc2)c1 (stereo not given) | inactive: 4.42%
COc1ccc(Nc2cc(C(=O)NC3CCCC3)c3ccccc3n2)c(OC)c1 | inactive: 20%
Cc1ccc(CN(C(=O)Nc2cccc(Cl)c2)c2ccccn2)cc1 | inactive: -14.4%
CCNC(=O)Cn1c(-c2cccs2)cc2ccccc21 | inactive: -16.5%
CCn1ccc2cc(S(=O)(=O)N3CCC(C(=O)NCc4cccc(C)c4)CC3)ccc21 | inactive: 6.83%
Cc1ccc(C)c(Cn2c(=O)n(CCCCC(=O)NCc3ccccc3Cl)c(=O)c3ccccc32)c1 | inactive: 6.99%
COc1ccccc1N1CCN(c2csc3ccc(Cl)cc3c2=O)CC1 | inactive: 9.36%
CCOc1ccccc1NC(=O)Cn1ccn(-c2ccccc2)c(=O)c1=O | inactive: -1.21%
CCCCNC(=O)c1cc(Sc2ccc(OCC)cc2)nc2ccccc12 | inactive: 4.14%
COc1ccc(S(=O)(=O)N2CCN(c3ccccc3OC)CC2)cc1-c1noc(C)n1 | inactive: -2.84%
Cc1ccc(Cn2c(-c3ccccc3)nc3ccccc32)cc1 | inactive: 1.71%
